Measurements: PubChem BioAssay AID485360 (National Center for Advancing Translational Sciences (NCATS), 2010)
Screen size: about 230,000 compounds; about 1,500 (0.65%) were called active. This list was built around the results that the source calls inconclusive (neither active nor inactive); the mix of calls is not that of the screen. Calls come from the whole dose curve; as a rule, active = well fitted inhibition curve with a large enough effect; inconclusive = small, poorly fitted or top-dose-only effect; inactive = no such curve, though single readings can be large or run the other way. Potencies beside an inconclusive call are fits to weak or partial responses and may not hold up.

Each compound was assayed against Lethal(3)malignant brain tumor-like protein 1 (Homo sapiens) (UniProt Q9Y468) (assay: qHTS Assay for the Inhibitors of L3MBTL1). Settings: AlphaScreen L3MBTL1–H3K9me1 peptide binding; activity, negative = inhibition: at 57.1 µM (top of the series).
Sequence of UniProt Q9Y468 (Q9Y468 whole entry, looked up): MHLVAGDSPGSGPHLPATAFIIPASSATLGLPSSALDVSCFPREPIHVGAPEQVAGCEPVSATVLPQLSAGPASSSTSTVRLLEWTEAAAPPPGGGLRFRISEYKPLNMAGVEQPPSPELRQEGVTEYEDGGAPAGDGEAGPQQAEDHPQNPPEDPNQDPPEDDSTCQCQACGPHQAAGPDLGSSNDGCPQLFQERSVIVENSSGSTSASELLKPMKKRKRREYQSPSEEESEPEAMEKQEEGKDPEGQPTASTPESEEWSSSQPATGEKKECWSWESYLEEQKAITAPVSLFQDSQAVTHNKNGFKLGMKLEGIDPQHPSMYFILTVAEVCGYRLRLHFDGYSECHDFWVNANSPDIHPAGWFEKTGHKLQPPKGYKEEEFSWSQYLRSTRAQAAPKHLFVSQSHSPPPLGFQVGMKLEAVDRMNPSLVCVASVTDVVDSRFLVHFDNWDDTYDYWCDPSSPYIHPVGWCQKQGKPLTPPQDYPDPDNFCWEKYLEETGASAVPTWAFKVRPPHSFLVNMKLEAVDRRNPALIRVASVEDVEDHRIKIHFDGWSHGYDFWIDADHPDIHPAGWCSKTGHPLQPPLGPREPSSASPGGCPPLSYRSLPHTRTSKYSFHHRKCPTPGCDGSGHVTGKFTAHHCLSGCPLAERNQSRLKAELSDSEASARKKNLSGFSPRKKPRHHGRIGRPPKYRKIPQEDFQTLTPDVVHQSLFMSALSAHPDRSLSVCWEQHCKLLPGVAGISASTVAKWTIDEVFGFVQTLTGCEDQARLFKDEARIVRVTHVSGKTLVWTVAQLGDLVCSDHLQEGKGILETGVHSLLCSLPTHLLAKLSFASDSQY
Summary of the method: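 First, the protein-peptide complex forms for 30 min at room temperature (L3MBTL1 50 nM, biotinylated H3K9me1 peptide 75 nM). Next, compounds are pin-transferred and incubated 30 min. Finally, AlphaScreen beads are added and read after 30 min.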
% is set by controls: 0 for no effect and ±100 for the full control effect; potency is the fitted concentration of half-maximal effect; tags give direction and shape of the fitted curve.
Note: nearly all actives have a fitted effect of over 60% in size.

Row | Compound | Potency | activity, negative = inhibition
1 | COc1cc(CNc2nnnn2C)ccc1OCc1ccc(F)cc1Cl | inconclusive: 0.112 µM [inhibitor, full curve, poor fit] | 
2 | COc1ccccc1/C=C(/C(=O)OCC(=O)Nc1ccc(N(C)C)cc1)c1ccccc1 | inconclusive: 28.2 µM [inhibitor, partial curve] | 
3 | CC(=O)Nc1cc(NC(C)=O)cc(-c2nc3ccccc3[nH]2)c1 |  | inactive: -0.312%
4 | CCCCN(CC)CCCNC(=O)c1cc2c(=O)n(C)c3ccccc3c2n1C | inconclusive: 3.55 µM [inhibitor, partial curve, poor fit] | 
5 | CCCn1nc([N+](=O)[O-])c(C(C#N)c2nc3ccccc3o2)c(Cl)c1=O (centres undefined) | inconclusive: 39.8 µM [inhibitor, single point] | 
6 | CCc1cc(N2CCOCC2)cc2c1[nH]c1ccccc12 | inconclusive: 35.5 µM [inhibitor, single point] | 
7 | CCCc1[nH]c2ccc(C(=O)OC)cc2c1CCC | inconclusive: 6.31 µM [inhibitor, single point] | 
8 | CC1CC1C(=O)OCC(=O)Nc1ncc(Cl)cc1Cl (centres undefined) | inconclusive: 25.1 µM [inhibitor, single point] | 
9 | O=C(NCC(c1cccs1)N1CCOCC1)c1ccco1 (centres undefined) | inconclusive: 0.794 µM [inhibitor, partial curve, poor fit] | 
10 | O=C1NCCOC(=O)[C@@H](Cc2ccc(F)cc2)CC/C=C/C[C@@H]1CC(=O)N(CCO)Cc1ccccc1 |  | inactive: 3.99%
11 | CN(C)c1ccc(C(CNC(=O)c2ccc(F)cc2)c2c[nH]c3ccccc23)cc1 (centres undefined) | inconclusive: 39.8 µM [inhibitor, single point] | 
12 | CCOc1cc(/C=C2\N=C(SC)SC2=O)cc([N+](=O)[O-])c1OC(C)=O | inconclusive: 35.5 µM [inhibitor, single point] | 
13 | C/C(=N/NC(N)=S)c1ccc(Br)s1 |  | inactive: -6.94%
14 | O=C(O)CCC(=O)Nc1sc2c(c1C(=O)Nc1cccc3ccccc13)CCCCC2 |  | inactive: 0.664%
15 | Cc1ccc(/C=N/NC(=O)c2ccc3c(c2)OCCO3)s1 | inconclusive: 31.6 µM [inhibitor, partial curve] | 
16 | O=C(O)CNC(=O)/C(=C/c1ccco1)NC(=O)/C=C/c1ccccc1 | inconclusive: 39.8 µM [inhibitor, single point] | 
17 | Cc1cc2c(cc1S(=O)(=O)N1CCN(c3ccc(Cl)cc3)CC1)OCCN2C | inconclusive: 25.1 µM [inhibitor, single point] | 

Row | Compound | Potency | activity, negative = inhibition
18 | O=C(Nc1ccc(S(=O)(=O)NC2=NCCCCC2)cc1)c1ccc([N+](=O)[O-])s1 |  | inactive: -3.2%
19 | C/C(=N\N=C1\NC(=O)C(CC(=O)Nc2ccc(Cl)cc2)S1)c1ccco1 (centres undefined) | inconclusive: 25.1 µM [inhibitor, single point] | 
20 | COc1ccc(NC(=O)CCC(=O)OCc2ccc([N+](=O)[O-])cc2)cc1 | inconclusive: 0.1 µM [inhibitor, full curve, poor fit] | 
21 | O=C1OCCC1Sc1ncnc2sc3c(c12)CCC3 (centres undefined) | inconclusive: 3.98 µM [inhibitor, full curve] | 
22 | Cc1cccc(NC(=S)N=Nc2c(O)[nH]c3ccccc23)c1 | inconclusive: 35.5 µM [inhibitor, single point] | 
23 | CCC(=O)N1CCN(c2ccc(Cl)cc2NC(=O)Cc2ccccc2)CC1 | inconclusive: 6.31 µM [inhibitor, single point] | 
24 | CCSc1nnc(-c2cccnc2)n1Cc1ccco1 |  | inactive: -2.94%
25 | Cc1ccc(C(=O)N/C(=C\c2ccccc2)C(=O)NCCCn2ccnc2)cc1 | inconclusive: 22.4 µM [inhibitor, single point] | 
26 | COc1ccc(C(=O)COC(=O)c2cccc(-n3cnnn3)c2)c(OC)c1 | inconclusive: 20 µM [inhibitor, single point] | 
27 | C[C@H](NC(=O)c1nc[nH]c1C(=O)NC1CCN(C(=O)OC(C)(C)C)CC1)C(=O)OCc1ccccc1 | inconclusive: 0.794 µM [inhibitor, single point] | 
28 | Cn1cccc1/C=C1\SC(=O)N(CC(=O)Nc2ccc(Cl)cc2)C1=O |  | inactive: -5.53%
29 | CCN(CC(=O)Nc1c(F)cccc1F)C(=O)C1CC(=O)N(c2ccc3c(c2)OCCO3)C1 (centres undefined) | inconclusive: 6.31 µM [inhibitor, single point] | 
30 | Cc1cc(NC(=O)CSc2cn(CCNC(=O)c3ccc(Cl)cc3)c3ccccc23)no1 | inconclusive: 39.8 µM [inhibitor, single point] | 
31 | COc1ccc(OC)c2sc(N3CCc4ccccc4C3)nc12 | inconclusive: 39.8 µM [inhibitor, partial curve, poor fit] | 
32 | CCOC(=O)CC(NCc1ccc(OC)c(OCC)c1)c1ccc(C)cc1 (centres undefined) |  | inactive: 4.36%
33 | O=C1C=C(N(CCO)Cc2ccccc2)c2ccccc2C1=O | inconclusive: 39.8 µM [inhibitor, single point] | 
34 | CCOc1ccc(OCC)c(NC(=O)CCn2cccc2)c1 | inconclusive: 31.6 µM [inhibitor, single point] | 
